The values that follow come from article PMC10293653 (International Journal of Biological Macromolecules, 2023).

This test has as its system Wt-SARS-CoV-2. The test is classed as cell-based.

For `N[C@@H](CC(=O)N1CCn2c(nnc2C(F)(F)F)C1)Cc1cc(F)c(F)cc1F` [Sitagliptin, sitagliptin], for the setting “0.99 μM”, the “effect on viral growth” value is “partially encumbered the viral growth”. For the same compound, the “inhibition of viral multiplication compared to cells with virus alone” value (1.98 μM) is “almost six folds”.
